The other results are listed elsewhere or left out.
System: PF3D7_0420300 AP2 domain 1 (GST-tagged)
Experiment: gcPBM binding intensity (ln(normalized median fluorescence intensity)); higher = stronger DNA binding
Method in brief: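 Binding intensity is the highest Masliner-normalised natural-log median intensity over replicate spots in either probe orientation. To obtain it, GST-tagged P. falciparum DNA-binding domains made in E. coli were incubated for 1 h on an Agilent 4 × 180k array of primer-extended double-stranded 36-bp intergenic genomic probes plus negative controls. Detection used Alexa488 anti-GST antibody with scanning at 488 nm.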

Sequence | gcPBM binding intensity (ln)
TTTTAAAAAACAAACACACACGTAGAAAAAAAAAAA [CACACA_site4608] | 9.72
CTGTATAAAACCAATGCATGTAAATATATTAATATA [TGCATGCA_site511] | 9.27
GAAATTTTATTTCGGCGGACAAATGTATACTTTCTT [XGTACX_site4238] | 9.14
GAGAAGACATTACACAGTACCCAGTAACTCTACGGA [XGTACX_site2000] | 9.27
GATTATTATGTCCATGCATGTTAATATATATTAATT [TGCATGCA_site837] | 9.39
AAATTGGGGCTTGTTACACACTTAGTGCGAGTTCTA [CACACA_site582] | 9.45
TTATGATGGTCTTTATAAGGGCACATTAAATTCGGC [TGCATGCA_negctrl_site166] | 9.13
AAACTATTCACTATAATACATTAGAAGTGAATAAAA [TGCATGCA_negctrl_site498] | 9.1
ATATATTTAACAAGATGTACAATTTTATAAAAAATA [XGTACX_site2351] | 8.98
CCATTATATCTAAGTACACACATTAATTTTTTTTTT [CACACA_site6115] | 9.41
TATATATAAATATTCAGTACATAGTGCTATTAAGTG [XGTACX_site1979] | 9.25
AGAAATTAATCGAGGTGTACGTACATCCAAATATAT [XGTACX_site7650] | 9.34
TGAAAAGGAAATTGTTGTACATATGTTTCTTCCTAA [XGTACX_site3932] | 9.02
AATAGCAATTTGGGGTGTACACACACCTTATTTAAA [XGTACX_site2234] | 9.45
TTTTTATAAAAAAATAGTACTCGTCTAATCTTATGT [XGTACX_site8532] | 9.01
ACAAAAAAGTAAAAAGTGCATGTAAAATATAAGTAT [GTGCAC_site9438] | 9.73
AAATTGTGTTCATCAGCACACACAACATCATGTAAT [CACACA_site8556] | 9.63
TTAATATATTATATTTGTACATATATATATATACAA [XGTACX_site4798] | 9.02
AATAAATCTTTTTGTTGTACTAAAAATATTATTAGC [XGTACX_site3335] | 8.92

Sequence | gcPBM binding intensity (ln)
CGAAAGAAAAAAAGCACACACAGTTTTGAGCAATGA [CACACA_site2109] | 9.62
ACACATATGACAAATAGTACATAAATATATAAATAT [XGTACX_site7141] | 9.46
AATATTCACATTTGTTGTACATTCCTAGTTATATAA [XGTACX_site491] | 9.48
AAAAAATTTCAAATAACACACACTAATATATATATG [CACACA_site1426] | 9.76
TAAATATATAATTGTAGTACTGTTTTATGTTCATAA [XGTACX_site1020] | 9.23
TAAACAGATATATTTTGTACATATTGTATATTTTGT [XGTACX_site713] | 9.27
AAGGAAAATTTTTGGTGTACACAAAAAAATCCAAAA [XGTACX_site3596] | 9.17
TAAAAAATGTTATATACACACAGTATAAAAAAAAAT [CACACA_site7808] | 9.64
AATTAAATTATAAGCACACACATATATATATATATA [CACACA_site3351] | 9.41
CCACGTATAATATGTACACACACATAAATACAAAAA [CACACA_site4660] | 9.85
CTTATTTCCTTTTGTAGTACCTTATAATATATATAA [XGTACX_site8873] | 9.41
GCATTTCTACTAAAAATACACACGATGATACAACGA [CACACA_site1756] | 9.28
TTCTATTTGTAAAATTGTACAAAATAAATAACAAAA [XGTACX_site1007] | 8.99
TAATAATAGTACTCACATCAAAGTATTATTAAAAAT [TGCATGCA_negctrl_site496] | 9.16
GGGAAGTAGTAGTAATGTACTTATTTATTATGTGAC [XGTACX_site3985] | 9.22
TTATATATTTTTTGCACACCAAAAAAGAGAATATTC [CACACA_site2730] | 9.2
TATAAATATAAATACACACACATATATATTATATAT [CACACA_site4496] | 9.85
TATATATATATATGTTGTACATATTTAAATGTTTAT [XGTACX_site5437] | 9.08
ATATATATATATATGTGTACATAATAACTTTGCTTA [XGTACX_site1255] | 9.25

Sequence | gcPBM binding intensity (ln)
ACCTATTTCAAACACACACACACACTAGCAAACATA [CACACA_site4695] | 10.3
TAAATACAAAAATGTACACACATATATATATTTTTA [CACACA_site3503] | 9.42
TAAATTTTAATATGCACACAAAATGTTATATTAAAA [CACACA_site4366] | 9.11
CGGCACATTATATATACACACATATAAATATATACA [CACACA_site8086] | 9.5
TATATCTTAATATACACACACACATATATATATATA [CACACA_site4968] | 9.92
TAAATGAAAACCATTAGTACTTATACTGATAAATGT [XGTACX_site763] | 9.23
TATATAAATATATATACACACAAAAAAAAAAAAAAA [CACACA_site1406] | 9.46
AAAAATAAAATAATATGTACATATATAATATATATA [XGTACX_site4786] | 9.28
TATTCGAAAATTATTCAAATTATCTAACATATTATT [TGCATGCA_negctrl_site70] | 8.92
AATTGGAAACAACCAAAAAAATTAAAGTTGTATCCT [CACACA_negctrl_site565] | 8.98
TAATTTTTTAGACACACACACATATAAATATAAATA [CACACA_site6195] | 9.94
TTGTATATTATATGTACACACAATAAGTTAATATAA [CACACA_site909] | 9.27
TTCCTTTGTCCTAACTGTACTCAAATTTATTAGTGG [XGTACX_site226] | 9.3
ATAATATATTTTTGAACACACAATATAGATTTATAT [CACACA_site7857] | 9.36
TAATTAAAATTATCTACACACCTTTATAAATATATA [CACACA_site3928] | 9.26
AAAAAAAGTTGATACTGTACTCGTGCATTATGAATA [XGTACX_site5558] | 9.26
CTTATTAAAATTATTTGTACACAATATGTAAAAGTA [XGTACX_site7237] | 8.95
AGGTATTTTCTTGTGACACACATATATATATATATT [CACACA_site2220] | 9.7

From the supplement of paper PMC11417369
